Measured values: the supplement of paper PMC11417369
± gives the standard deviation of the averaged measurements. The list shows a part of the results.

The sequences below were run on PfAP2-LT AP2 domain (GST-tagged) (assay: gcPBM binding intensity (ln(normalized median fluorescence intensity)); higher = stronger DNA binding).
Procedure, shortened: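 GST-fused DNA-binding domains of P. falciparum, expressed in E. coli, were applied at about 25 μg on average for 1 h to an Agilent 4 × 180k array of primer-extended double-stranded 36-bp intergenic genomic probes and negative controls. Binding intensity is the highest Masliner-normalised natural-log median intensity across replicate spots of either probe orientation, measured with Alexa488 anti-GST antibody and a 488 nm scan.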

Sequence	gcPBM binding intensity (ln)
CTATTATAAAAATGATGTACACTTATATATACATAT [XGTACX_site6087]	8.87 ± 0.53
TTTTTTTTTTGAATATGTACTTAAAAAAATTTTTTT [XGTACX_site3851]	8.35 ± 0.55
TACATACATACATACATACACACATATATATATATA [CACACA_site1996]	9.88 ± 0.099
TACATGTATAATATAATACACACTATATAATATACA [CACACA_site2239]	8.96 ± 0.38
AAATTATAATTAGGAACACACATATATATATATATA [CACACA_site3098]	9.78 ± 0.29
TTAATATAAATATGATTTTTGATTCCTATACTATTT [CACACA_negctrl_site752]	8.59 ± 0.45
TTGTATTCATATGGTTGTACATATTAAAAGTTCTAA [XGTACX_site7255]	8.47 ± 0.47
ATAAGGTTACAACAAACACACAAAGGAATATACGCA [CACACA_site4090]	9.35 ± 0.49
AAGAAGAATAGGCGTTGTACGGAATGTAGTAGAGTT [XGTACX_site2430]	9.26 ± 0.46
ATACGACAAATATAAAGTACAAGCTTGGTTTTTATA [XGTACX_site8103]	8.88 ± 0.59
AATTATGGGGAAAAGACACACATATATATATATATA [CACACA_site2589]	9.84 ± 0.085
TATGCAAGGAACCACACACACACACGGAAATGTATA [CACACA_site6490]	9.95 ± 0.43
ATTCTATAGAAACACACACACATGCATGCACCTATA [CACACA_site107]	9.91 ± 0.33
TTATATATATATGTATGTACTTATAACTTTTATTAG [XGTACX_site3190]	8.73 ± 0.42
TTCTTTTTTTTCAGTTGTACTTATAAGAAAGAAAAA [XGTACX_site4028]	8.01 ± 0.23
TTTATTTTTAAAGGCACACACATTTTTATTTTTAAA [CACACA_site2021]	8.77 ± 0.49
TTTATTTATAGAATTACACACATATATACACAAATG [CACACA_site7338]	8.97 ± 0.35
TTATTATAAATAGGTAGTACATTTTGAACAAATATT [XGTACX_site8866]	8.43 ± 0.45
ATATATATAACAAAAGTGCATTAAGGGGATGCTATA	8.82 ± 0.49
AATATAAATATAGGAAATGTAGTTAAAAGGTGTATG [CACACA_negctrl_site1233]	8.82 ± 0.59
TTTTATATATTCAATTGTACATGTATTTTTTTTTTT [XGTACX_site3584]	8.82 ± 0.5
CAAAGACACAAACACACACACACATACATACATACA [CACACA_site453]	10.3 ± 0.42
TATGGGTATGTATTCACACATAACAAAAATATCAAA [CACACA_site5059]	8.87 ± 0.49

Sequence	gcPBM binding intensity (ln)
ATATATATATATAACACACGCAAAAAAATTAAATAA [CACACA_site1400]	9.16 ± 0.38
TATACTGATAAAAAAAGTACTAGAGTTTGTAAAAAT [XGTACX_site3934]	8.63 ± 0.49
CACAAGAAAGTTCACACACACACATATATATATATA [CACACA_site6009]	9.93 ± 0.62
TTATATGTCAATTTGCGTACATACATAATTACATAT [XGTACX_site1546]	9.01 ± 0.44
AATTTTAATTTTTTGACACACATATAATATATATAT [CACACA_site3978]	8.88 ± 0.46
ATAAATTTACTTGATTGTACATTTCTTAGTTGTATT [XGTACX_site3057]	8.95 ± 0.47
GGTATACTCAAGTATACACACATATATATATATATA [CACACA_site5746]	9.64 ± 0.49
AAAATATATTAAGGCACACACATACAGATATATATA [CACACA_site5951]	9.46 ± 0.41
TACATACACAAATACACACACAAATACATACCCAAA [CACACA_site4550]	9.74 ± 0.2
TTTTTTCTTTTTTTTTTTTTTTTCTTTTTTTTTTTT [GTGCAC_negctrl_site196]	8.36 ± 0.55
TACGTGAAATTATATACACACATAAATATGGGTGTA [CACACA_site5687]	8.88 ± 0.37
TACATGATAGATCACACACACATATAAATATATATA [CACACA_site5562]	9.45 ± 0.43
TAAAATAACTCACAAAGTACAAAAATAAGCATATGA [XGTACX_site7046]	8.89 ± 0.47
ACATAAGACACAAATACACACAAAAATATATAACAA [CACACA_site4082]	9.44 ± 0.37
AACAATATGGATGTATGTACACATATAGAACGTTAT [XGTACX_site7142]	9.34 ± 0.59
TATGCATTTATGCATTGTACTTTTATAGATTCCACC [XGTACX_site7121]	8.59 ± 0.49
TACAAAAAAAAAGAACGTACAAAAAATTTCAAAAAT [XGTACX_site5860]	8.76 ± 0.51
GAAATTTTATTACTTTTACACACCTATATATTATTC [CACACA_site9076]	9.04 ± 0.5
ATATTATATATACACGCACACACACTAATATATATA [CACACA_site9092]	9.67 ± 0.14
ATGAACGGAAAAATATATATAAATATATATATCATG [XGTACX_negctrl_site342]	8.78 ± 0.4
TATGTATATATATTAACACACAAAAAAAAAAAAAAA [CACACA_site1812]	8.84 ± 0.38
TTAAACTATACCAAAACACACATACAAAATATAAAA [CACACA_site5494]	9 ± 0.47
AAATATATATTCATGTGTACACACAAAAAAAAATAA [XGTACX_site4552]	9.48 ± 0.47

Sequence	gcPBM binding intensity (ln)
AAAAATTTTCAAGTGTGTACATATTTTCATTTAACA [XGTACX_site6186]	8.79 ± 0.36
AAGAAAAAGTATCCTCTATCTTTATATAAACTATTA [TGCATGCA_negctrl_site2]	8.51 ± 0.53
TTTTTATTTAGCTAAGCATGCTAACGATGACACTTC [TGCATGCA_site79]	8.73 ± 0.49
TTTATACTTTTAAATTGTACTATAAAAAGGAATACA [XGTACX_site2537]	8.2 ± 0.4
TAATAAAAAATTAAAAAAAATAAAAATAAAAATAAA [GTGCAC_negctrl_site78]	8.39 ± 0.6
CATACATATACTTTGTGTACATATATATATTATATA [XGTACX_site97]	8.74 ± 0.44
ATGTATATATTTTTATGTACATATTTTTAATTTATA [XGTACX_site2982]	8.62 ± 0.38
GAATATTCAACATAATGTACAAGTATTCATTTCTTT [XGTACX_site7860]	8.66 ± 0.44
CAAAAATAAAAGAAATGTACAAAAAATAATAAAAAA [XGTACX_site6597]	8.87 ± 0.58
AAAATTCATAAATACACACACGCACATATATATATA [CACACA_site4227]	9.855 ± 0.078
TAATAAACTTAAAAATGTACATATATTTATTATTAC [XGTACX_site4321]	8.56 ± 0.45
AAGAAAATGTATATATGTACATACAATCAAAAGAAG [XGTACX_site3454]	9.01 ± 0.48
AGTTTAATTTTGTATACACACATTTGAATTATTAAT [CACACA_site7625]	9.13 ± 0.37
AACAAATATGATTTTTTATATATTTTTAAATTTGGT [GTGCAC_negctrl_site189]	8.32 ± 0.48
AGCTACAAAAATTAATATATATATGTATAGTTATAC [TGCATGCA_negctrl_site531]	8.64 ± 0.42
TATATCTATTTCAAATGTACTTATATGATTCTTATA [XGTACX_site6277]	8.6 ± 0.45
GTTCATATAATAAAATGTACATAATATATTATATAT [XGTACX_site7623]	8.76 ± 0.36
AAATTACTGTAAAAAAGTACAGAAGTTCTTATTTTT [XGTACX_site7416]	8.44 ± 0.35
TATATGTAGATTAAACGTACTTACAACGGAATTATC [XGTACX_site3036]	8.75 ± 0.44
GTATTATATTTTAATACACACCCAAATATTAAAAAG [CACACA_site8968]	8.73 ± 0.31
TGCCATCATATCATAGGTACACAAACATATAAAGAA [XGTACX_site4137]	8.91 ± 0.48
AAATGTTCAGAAACTATTATAAAAATGGAATAATAT [CACACA_negctrl_site1544]	8.59 ± 0.49
TAAATATTATATTTATGTACATAAGTTTTTTTTAAT [XGTACX_site3559]	8.49 ± 0.48

Sequence	gcPBM binding intensity (ln)
CTTAATATGGATATTGCATGTAGAACATGAACAATA [TGCATGCA_site760]	8.63 ± 0.4
TTAACAAATAAATGCACACATATATATAAATAATAT [CACACA_site28]	9.01 ± 0.38
TTATGCTCAAAGAAAAGTACATAAATAAAAGTATAT [XGTACX_site7365]	8.73 ± 0.45
TTCTTCAATATATTCTTACACACTTAAAAAAAAAAA [CACACA_site228]	8.27 ± 0.35
TAAACACCCATACATACACACATACATACACCCATA [CACACA_site5125]	9.63 ± 0.18
ATATATATATATATATGTACATAATGCATATAATAT [XGTACX_site6142]	9.39 ± 0.028
TTAATACTTTTTTCTGTACACACTTGATTTACTATA [CACACA_site2799]	9.03 ± 0.42
GAAGGAAAAGATACGATAAAATAAGATATTAATTTA [GTGCAC_negctrl_site419]	8.61 ± 0.62
TTTTTTTTTTTTTATTGTACATACTTTTAAATATAT [XGTACX_site4303]	8.71 ± 0.42
GTATATAAATAAATAGTGCATTATTAAAAATAATGT	8.85 ± 0.47
GTATACAACATATGAACACACAAAATATTTTTTTTT [CACACA_site2928]	8.98 ± 0.45
TATCTCCACAAAAGATGTACTCATATTAATTTATAA [XGTACX_site3535]	8.27 ± 0.39
TTAAAGCTTGCATATACACACATACATAAATTCATA [CACACA_site7208]	8.9 ± 0.4
TAAAAGTTGAAGCACACACACAAAAGAAATACAATA [CACACA_site6649]	9.77 ± 0.49
ATATATTTATATTTTTGTACCCAAAATTGTTTGATG [XGTACX_site3581]	8.73 ± 0.52
ATTGAGGCTGGTTATATAATAATTTTATTATTTTAG [GTGCAC_negctrl_site409]	8.74 ± 0.36
TTTGTTATATTTAATACACACATATTATAAACACAT [CACACA_site7703]	8.98 ± 0.38
TATGAAAAGTAAAGTACACACAGGAAAAAAAAAAAA [CACACA_site1749]	9.19 ± 0.52
TATATAATATATTTATGTACTCACAATGGGGTCTAC [XGTACX_site2691]	8.86 ± 0.49
AAAATATATAAACGCACATATATTTATGTATATATA [CACACA_negctrl_site163]	8.89 ± 0.42
